Data: PMC4336329 (PLoS ONE, 2015)
In all, about 310,000 compounds went through this assay and about 14,000 (4.5%) showed an effect of 50% or more. The effect is printed as a negative number. Some of the results follow.

Each compound was assayed against human ether-à-go-go-related gene (hERG) potassium channel (human, UniProt Q12809) (assay: primary screen, population patch clamp on CHO cells stably expressing hERG).
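Further: peak tail current of the secondary pulse compared with the same well before compound.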

Sequence of human ether-à-go-go-related gene (hERG) potassium channel (Q12809 whole entry, looked up): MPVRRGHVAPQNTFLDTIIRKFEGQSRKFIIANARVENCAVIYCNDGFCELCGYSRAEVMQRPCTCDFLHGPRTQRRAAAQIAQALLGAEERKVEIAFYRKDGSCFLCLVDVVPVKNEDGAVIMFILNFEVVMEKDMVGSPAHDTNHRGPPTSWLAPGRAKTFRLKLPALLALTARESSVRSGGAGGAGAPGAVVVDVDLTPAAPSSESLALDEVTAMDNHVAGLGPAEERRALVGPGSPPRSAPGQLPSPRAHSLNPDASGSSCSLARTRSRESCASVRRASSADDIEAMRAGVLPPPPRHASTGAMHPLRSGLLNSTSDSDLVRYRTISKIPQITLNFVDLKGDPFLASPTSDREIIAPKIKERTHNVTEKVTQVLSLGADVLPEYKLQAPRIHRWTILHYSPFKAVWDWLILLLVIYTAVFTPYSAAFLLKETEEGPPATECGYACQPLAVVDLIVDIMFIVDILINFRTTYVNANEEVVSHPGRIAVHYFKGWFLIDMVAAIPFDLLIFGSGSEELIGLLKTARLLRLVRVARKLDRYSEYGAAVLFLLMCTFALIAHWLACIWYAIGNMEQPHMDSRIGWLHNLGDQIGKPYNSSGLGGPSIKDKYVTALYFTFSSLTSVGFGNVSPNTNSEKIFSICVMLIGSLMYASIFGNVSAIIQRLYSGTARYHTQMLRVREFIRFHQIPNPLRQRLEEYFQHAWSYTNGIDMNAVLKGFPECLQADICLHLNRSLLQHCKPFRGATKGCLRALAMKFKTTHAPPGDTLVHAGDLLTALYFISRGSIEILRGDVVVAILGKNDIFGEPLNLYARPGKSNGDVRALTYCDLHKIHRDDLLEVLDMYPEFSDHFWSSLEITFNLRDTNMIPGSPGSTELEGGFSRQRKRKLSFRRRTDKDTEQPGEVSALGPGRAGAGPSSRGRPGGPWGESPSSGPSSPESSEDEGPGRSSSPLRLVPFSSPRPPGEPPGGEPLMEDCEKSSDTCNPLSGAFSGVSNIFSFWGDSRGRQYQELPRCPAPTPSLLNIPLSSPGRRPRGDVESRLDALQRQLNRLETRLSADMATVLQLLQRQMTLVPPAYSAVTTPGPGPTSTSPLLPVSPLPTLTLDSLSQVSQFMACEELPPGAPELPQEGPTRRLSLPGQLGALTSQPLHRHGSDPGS

First: COC(=O)N/N=C(/c1ccccc1)C1CCCCC1
Second: COc1cccc(NC(=O)COC(=O)CCC2CCCC2)c1
The “hERG current change (%, negative = inhibition) at 10uM” value of the first is higher: 31% for the first, -4.57% for the second.

First: Cc1cccc(NC(=O)C2CCN(S(=O)(=O)c3c(C)noc3C)CC2)c1
Second: CCN(C(=O)C1CCN(S(=O)(=O)c2cccc3nonc23)CC1)c1ccccc1
The “hERG current change (%, negative = inhibition) at 10uM” value of the first is lower: -12.6% for the first, -3.13% for the second.

Going from `O=C(COc1ccc(S(=O)(=O)N2CCOCC2)cc1)NCCN1CCOCC1` to `Cc1ccc(NC(=O)COc2ccc(-c3nnco3)cc2)cc1S(=O)(=O)N1CCOCC1`, the “hERG current change (%, negative = inhibition) at 10uM” value falls from 19% to -3.68%.

First: Nc1nonc1-n1nnc(C(=O)N/N=C/c2ccncc2)c1CSc1ccc(Cl)cc1
Second: Nc1nc(CC(=O)CSc2ccc(Cl)cc2)nc(Nc2ccc(F)cc2)n1
The “hERG current change (%, negative = inhibition) at 10uM” value of the first is higher: 28.2% for the first, 6.31% for the second.

First: Cc1cc(C(C)(C)C)oc1C(=O)N(CC(=O)NC1CCCC1)Cc1ccccc1
Second: CC(=O)c1ccccc1N(C(=O)c1ccco1)C(C(=O)NC1CCCC1)c1ccc(C)cc1 (stereo not drawn)
The “hERG current change (%, negative = inhibition) at 10uM” value of the first is higher: 16.7% for the first, 7.13% for the second.

Compared with `Cl.Nc1nonc1C(=O)NCCNCc1ccccc1OCc1ccc(F)cc1`, `CC(=O)c1cn(Cc2ccccc2)c(=O)n(Cc2ccc(F)cc2)c1=O` is higher in “hERG current change (%, negative = inhibition) at 10uM” value: -65.9% for the first, -4.64% for the second.

Compared with `Oc1ccc(N2CCN(Cc3c(-c4ccccc4)nc4ccccn34)CC2)cc1`, `CC(=O)c1ccc(N2CCN(c3ccc(C(N)=O)cc3[N+](=O)[O-])CC2)cc1` is lower in “hERG current change (%, negative = inhibition) at 10uM” value: -9.23% for the first, -10.9% for the second.

Compared with `COc1cc2c(cc1NC(=O)COC(=O)c1ccc(C(C)(C)C)cc1)oc1ccccc12`, `Cc1ccc(OCCC(=O)OCC(=O)Nc2cc(C)nn2-c2ccccc2)cc1` is lower in “hERG current change (%, negative = inhibition) at 10uM” value: 9.77% for the first, -32.7% for the second.

Going from `CCc1ccccc1NC(=O)CCc1nc(-c2cccs2)no1` to `Cc1ccc(NC(=O)CSCc2cc(=O)n3ccsc3n2)cc1`, the “hERG current change (%, negative = inhibition) at 10uM” value rises from 2.79% to 14.2%.

First: CC(=O)Nc1ccc(NC(=O)C2CC(=O)N(C(C)C)C2)cc1 (stereo not drawn)
Second: COc1cccc(NC(=O)C2CC(=O)N(Cc3ccc(C)cc3)C2)c1 (stereo not drawn)
The “hERG current change (%, negative = inhibition) at 10uM” value of the first is higher: 11% for the first, -9.9% for the second.

Going from `C[C@@H](C(=O)Nc1nc2ccccc2s1)N1C(=O)C2CC=CCC2C1=O` (stereo partly drawn) to `CC1CC(C)(C)CC2(C1)NC(=O)N(CC(=O)N(C)Cc1nc3ccccc3c(=O)[nH]1)C2=O` (stereo not drawn), the “hERG current change (%, negative = inhibition) at 10uM” value falls from -8.73% to -22.8%.

Going from `CCNC(=S)N1CCN(S(=O)(=O)/C=C/c2ccccc2)CC1` to `CN(c1ccccc1)S(=O)(=O)c1ccc(C(=O)N2CCCC2)cc1`, the “hERG current change (%, negative = inhibition) at 10uM” value rises from -3.43% to 5.6%.

Compared with `O=C(NCC(c1cccs1)N1CCOCC1)c1cccc([N+](=O)[O-])c1` (stereo not drawn), `Cc1ccc(C(=O)Nc2ccc(Cl)cn2)cc1S(=O)(=O)N1CCOCC1` is lower in “hERG current change (%, negative = inhibition) at 10uM” value: -7.91% for the first, -51.4% for the second.

Compared with `COc1ccc(CCC(=O)NNC(=O)Cn2nc(C)cc2C)cc1`, `CCOC(=O)N1CCN(C(=O)Cn2nc(C)n3nc(-c4ccc(CC)cc4)cc3c2=O)CC1` is lower in “hERG current change (%, negative = inhibition) at 10uM” value: 11.7% for the first, 7.23% for the second.

Going from `COc1nc(C)nc(Cl)c1NC1=NCCN1.Cl` to `Cc1ccccc1-n1ncc2c1CC(C)(C)CC2NC(=O)c1snnc1C` (stereo not drawn), the “hERG current change (%, negative = inhibition) at 10uM” value falls from 15.1% to -3.08%.

First: COc1ccc(S(=O)(=O)Cc2ccc(C(=O)N3CCN(c4ncccn4)CC3)o2)cc1
Second: COc1ccc(CNC(=O)c2cccc(S(=O)(=O)N3CCN(C)CC3)c2)cc1
The “hERG current change (%, negative = inhibition) at 10uM” value of the first is lower: -16.8% for the first, 16.2% for the second.

Going from `Cc1ccc(CNC(=O)Cn2cccc2)cc1` to `Cc1ccc(CS(=O)Cc2ccc(C(=O)NCc3ccc(OC(C)C)cc3)o2)cc1` (stereo not drawn), the “hERG current change (%, negative = inhibition) at 10uM” value falls from 13.9% to 8.25%.

Compared with `O=C(Nc1cccnc1)c1ccc(C(=O)Nc2cccnc2)cc1`, `CSc1cccc(NC(=O)COc2ccccc2)c1` is lower in “hERG current change (%, negative = inhibition) at 10uM” value: 29.7% for the first, -17.6% for the second.

Compared with `Cc1c(C(=O)O)sc2nc(/C=C/c3cccc(O)c3)[nH]c(=O)c12`, `Cc1ccc(NC(=O)CN(C)Cc2nc3c(Br)cc(Br)cc3c(=O)[nH]2)cc1` is lower in “hERG current change (%, negative = inhibition) at 10uM” value: 21.4% for the first, -10.7% for the second.

Going from `Cc1nn(CC(=O)Nc2ccc(C#N)cc2)c(C)c1[N+](=O)[O-]` to `Cc1ccc(NC(=O)Cn2nc(-c3ccco3)ccc2=O)cc1Cl`, the “hERG current change (%, negative = inhibition) at 10uM” value rises from -25.2% to 10.8%.

Going from `O=C(CSc1cn[nH]n1)Nc1ccccc1C(F)(F)F` to `FC(F)(F)c1cc(-c2ccccc2)nc2ncnn12`, the “hERG current change (%, negative = inhibition) at 10uM” value falls from 8.13% to 7.8%.

Compared with `COc1ccc(-n2cc(CNCCCN3CCCC3=O)c(-c3ccccc3Cl)n2)cc1`, `COc1ccc(-n2c(-c3ccc(Cl)cc3)c[n+]3c2CCCCC3)cc1.[Br-]` is higher in “hERG current change (%, negative = inhibition) at 10uM” value: -60.9% for the first, -29.8% for the second.

First: Cc1ccc(C)c(NC(=O)CN(C)C(=O)COc2cccc3c2OC(C)(C)C3)c1
Second: COc1ccc(CCN(C)C(=O)C(CCSC)NC(=O)c2ccco2)cc1OC (stereo not drawn)
The “hERG current change (%, negative = inhibition) at 10uM” value of the first is lower: -24.4% for the first, 8.6% for the second.

Going from `Nc1c(-c2cccc(Cl)c2)cnn1-c1ccccc1` to `Cc1nc(-c2ccccc2)sc1C1(C)CC(c2ccccc2F)=NO1` (stereo not drawn), the “hERG current change (%, negative = inhibition) at 10uM” value rises from -60.3% to 1.13%.

Going from `COc1ccccc1N1CCN(C(=O)NC23CC4CC(CC(C4)C2)C3)CC1` to `O=c1oc2ccccc2c(N2CCCCC2)c1CN1CCCCC1`, the “hERG current change (%, negative = inhibition) at 10uM” value falls from 13.5% to -18.4%.

First: CC(=O)CC(=O)Nc1cccc2c1CCCC2
Second: COc1cccc(C(=O)NC(=O)Nc2cc(C)on2)c1
The “hERG current change (%, negative = inhibition) at 10uM” value of the first is higher: 17.3% for the first, 14.7% for the second.

Going from `CC1CCN(Cc2nc3c(c(=O)n(C)c(=O)n3C)n2CCc2ccccc2)CC1` to `CCCCN1CNC(=S)N(CCc2ccccc2)C1`, the “hERG current change (%, negative = inhibition) at 10uM” value falls from -11.6% to -24.7%.

Compared with `Cc1nccn1S(=O)(=O)c1ccc(Br)cc1Br`, `CCOc1ccc(CNS(=O)(=O)c2c(C)nc3sccn3c2=O)cc1OC` is lower in “hERG current change (%, negative = inhibition) at 10uM” value: -3.62% for the first, -66.1% for the second.

Going from `O=C(CSc1nnc(CNc2ccc(F)cc2)n1CC1CCCO1)Nc1ccccc1` (stereo not drawn) to `COc1cc2c(=O)n(CC3CCCO3)c(=O)n(CC(=O)Nc3ccccc3)c2cc1OC` (stereo not drawn), the “hERG current change (%, negative = inhibition) at 10uM” value rises from -35.5% to -2.85%.

Compared with `COc1cc(C(=O)NC(=S)N(CCc2ccccc2)CCc2ccccc2)cc(OC)c1OC`, `COc1ccc(OC)c(-c2cc(C(=O)Nc3c(C)n(C)n(-c4ccccc4)c3=O)no2)c1` is lower in “hERG current change (%, negative = inhibition) at 10uM” value: 0.172% for the first, -14.5% for the second.

Going from `CC(C)N1CCN(C(=O)c2ccc([N+](=O)[O-])cc2)CC1` to `Cc1cc(C(=O)N2CC(C)CC(C)C2)n(-c2ccccc2)n1` (stereo not drawn), the “hERG current change (%, negative = inhibition) at 10uM” value rises from -39.8% to 1.03%.

First: COc1ccc(C(C#N)Nc2ccc(C)cc2)cc1 (stereo not drawn)
Second: Cc1ccc(Sc2ncccc2COC(=O)NC(C)C)cc1
The “hERG current change (%, negative = inhibition) at 10uM” value of the first is higher: 5.72% for the first, 4.99% for the second.

First: CC(C)(C)/C=N/NC(=O)C1CC1
Second: CC(C)CCNC(=O)NC(=O)COC(=O)CNC(=O)C1CCCCC1
The “hERG current change (%, negative = inhibition) at 10uM” value of the first is higher: 13.7% for the first, -3.51% for the second.

Compared with `CCCC(=O)Nc1ncnc2c1ncn2[C@@H]1O[C@@H]2OP(=O)([O-])OC[C@H]2[C@H]1OC(=O)CCC.O.[Na+]`, `Cc1ccc(-n2ncc3c(=O)n(CC(=O)NCC4CCCO4)cnc32)cc1` (stereo not drawn) is higher in “hERG current change (%, negative = inhibition) at 10uM” value: -2.82% for the first, -2.01% for the second.

First: O=C(Nc1cc(C(F)(F)F)ccc1Cl)c1cc(C2CC2)on1
Second: CCCC(=O)Nc1cc(C(F)(F)F)ccc1N1CCOCC1
The “hERG current change (%, negative = inhibition) at 10uM” value of the first is higher: 10.3% for the first, 3.3% for the second.

First: Cc1ccc(C)c(Cn2nnc3c(=O)[nH]c(C4CCCN(C(=O)CC(C)C)C4)nc32)c1 (stereo not drawn)
Second: CN(CC1CCCCO1)C(=O)c1cc(COc2ccc(F)cc2Cl)on1 (stereo not drawn)
The “hERG current change (%, negative = inhibition) at 10uM” value of the first is higher: -14.6% for the first, -87.1% for the second.

Compared with `O=C(Nc1c2c(nn1-c1ccc(F)cc1)CS(=O)(=O)C2)c1ccc2c(c1)OCO2`, `CCc1ccc(OCC(=O)Nc2ccc3c(c2)OCCO3)cc1` is higher in “hERG current change (%, negative = inhibition) at 10uM” value: -33.2% for the first, 8.26% for the second.

Going from `Cc1ccccc1N/C=C/C(=C(C#N)C#N)N(C)C` to `Cc1cccc(-n2c(C)cc(/C=N/n3cnnc3)c2C)c1`, the “hERG current change (%, negative = inhibition) at 10uM” value rises from -7.8% to -0.869%.

First: CCCSc1ccc([C@H]2N[C@@](Cc3ccccc3)(C(=O)OC)[C@H]3C(=O)N(CC)C(=O)[C@@H]23)cc1.O=C(O)C(F)(F)F
Second: CN(C(=O)COC(=O)CN1C(=O)c2ccccc2C1=O)c1c(N)n(Cc2ccccc2)c(=O)[nH]c1=O
The “hERG current change (%, negative = inhibition) at 10uM” value of the first is higher: 6.44% for the first, -4.4% for the second.

Going from `CN(C(=O)CC1C(=O)NCCN1Cc1ccccc1C(F)(F)F)C1CCOCC1` (stereo not drawn) to `NC(=O)C1CCN(C(=O)COc2ccc3ccccc3c2)CC1`, the “hERG current change (%, negative = inhibition) at 10uM” value falls from 19.2% to 18.2%.

First: O=C(NCCc1c[nH]c2ccccc12)OCCSS(=O)(=O)[O-].[Na+]
Second: CCC(=NCc1ccco1)c1c(O)n(-c2ccccc2)c(=O)[nH]c1=O
The “hERG current change (%, negative = inhibition) at 10uM” value of the first is higher: 9.49% for the first, -0.174% for the second.

Compared with `Nc1cccc(Oc2ccc3c(c2)C(=O)NC3=O)c1`, `Cc1ccc(C(=O)CSc2nnc(N)s2)c(C)c1` is lower in “hERG current change (%, negative = inhibition) at 10uM” value: 8.45% for the first, -2.46% for the second.

First: CCOC(=O)N1CCN(S(=O)(=O)c2c(C)nc3sccn3c2=O)CC1
Second: O=C(c1cc(COc2ccc(F)cc2F)on1)N1CCSCC1
The “hERG current change (%, negative = inhibition) at 10uM” value of the first is higher: 21% for the first, -11.7% for the second.

For `Cc1ccc(OCCn2ccnc2)c([N+](=O)[O-])c1`, the “hERG current change (%, negative = inhibition) at 10uM” value was -4.29%.
